Assay results as given in PMC12136788.
Some of the results follow.

B1: chr17:42842016:42842117:+|3pUTR|ENSG00000131467|msi1|FALSE|unique (ssRNA)
RNA: GGGAGUUCUACAGUCCGACGAUCUUACUGUUUCUUUCCUCUGUGGGGCAUUGGAUCCUCCCACAGUUGCCCUGGUGAUGACUUAGGGCUUCCCAUCUGUGUACAUCCCACUUUGAAUCUUGAUCGUGACAAGAAAUACCUUAGCAACAGAGGAUUGAGCAUCA
B2: ENSG00000070961:be:win_4301|3pUTR|ENSG00000070961|bound_else_gene|NA|bound_elsewhere_windowed (ssRNA)
RNA: GGGAGUUCUACAGUCCGACGAUCGCUAAUACUAAUAGCCAAAUAGAUAACACUAAUGCUUUGUUUAAAAAAACGAAAAAAACAAAACAAAACAAAAAAACAUGAGCAGUGGUGUUCUAAUGAAGUUAUGACAUCUGUCCUAAUCAACAGAGGAUUGAGCAUCA
B3: chr10:22535117:22535218:-|3pUTR|ENSG00000150867|unk|total|mutant (ssRNA)
RNA: GGGAGUUCUACAGUCCGACGAUCAAGGUACACAUACAUUAUUUGAGUAACUGUUUCCUUGGGGGCCAAUCUGUGUAUGCUUUCCGAAGUUUACAGAAUGCUUUUAUUUUUGUCUAUAACAAACAGUCUGUCAUUUAUUUCUGUCAACAGAGGAUUGAGCAUCA
B4: chr3:149084675:149084859:-|CDS|ENSG00000071794|unk|FALSE|unique (ssRNA)
RNA: GGGAGUUCUACAGUCCGACGAUCCCAACUUUCUUUCCACGUUUUGAAUUCCAAGAUGUUAUCCCUCCAGAUGACUUUCUAACUAGUGAUGAAGAAGUAGAUUCCGUUUUAUUUGGAAGUUUGAGAGGUCAUGUGGUUGGACUACAACAGAGGAUUGAGCAUCA
B5: chr1:93180074:93180188:-|CDS|ENSG00000117500|unk|FALSE|bound_elsewhere (ssRNA)
RNA: GGGAGUUCUACAGUCCGACGAUCCUGGCCGCUCUGCCUCCGGUGCUGCUGCCUGGGGCGGCCGGCUUCACACCUUCCCUCGAUAGCGACUUCACCUUUACCCUUCCCGCCGGCCAGAAGGAGUGCUUCUACCAGCCCAUGCCCCAACAGAGGAUUGAGCAUCA
B6: ENSG00000092929:stop:overlap|stop_codon|ENSG00000092929|stop_codon|NA|stop_codon (ssRNA)
RNA: GGGAGUUCUACAGUCCGACGAUCUGAGGCUGCGGCGGCACCGGGCCAAGCAGGCCUCCCAGCAUGCCUUGCGGCCGGCACCGUAGCCGUAGAGGUUUGCGGUGGGGCUGGGUCCCCGGUGGGGACUUGCAAGGGCUUUCCUGUCAACAGAGGAUUGAGCAUCA
B7: chr3:48467913:48467962:-|3pUTR|ENSG00000164054|msi1_unk|FALSE|overlapping (ssRNA)
RNA: GGGAGUUCUACAGUCCGACGAUCCCCAGACAUGAAUACCUCGUGUUCCUCCUCCCUCUAUUACUGUUUCACCAGAGCUGUCUUAGCUCAAAUCUGUUGUGUUUCUGAGUCUAGGGUCUGUACACUUGUUUAUAAUAAAUGCAACAACAGAGGAUUGAGCAUCA
B8: chr14:103519669:103519777:-|3pUTR|ENSG00000166165|unk|total|mutant (ssRNA)
RNA: GGGAGUUCUACAGUCCGACGAUCCUGAUGUUCGCCGUCUGGCGAGCCCUCCGCCUUGCUGCCGAGACUUCCGUCACCCUUGGCCGAGUUUAUUUUUUUGAUGGCUAAGAUACUGCUGAUGCUGAAAUAAACCCGGGUUUUGGCCAACAGAGGAUUGAGCAUCA
B9: chr14:101901747:101901860:+|CDS|ENSG00000078304|unk|total|mutant (ssRNA)
RNA: GGGAGUUCUACAGUCCGACGAUCCUGGCCAAAGACUCACAGUCCAAAAGAAGUAAUGUUCUUAAACGAAUCCGAAGAGAUUUCCGAUGUCAUUGAACCAUCAGAAUUUGUGAAGAUCAUGGAACCCCUCUUCCGGCAGUUGGCCAACAGAGGAUUGAGCAUCA
B10: chr2:27243795:27243896:+|3pUTR|ENSG00000084774|unk|FALSE|unique (ssRNA)
RNA: GGGAGUUCUACAGUCCGACGAUCACUUAAUAAACAGCCGAGCUGUCCCUUGAUGCUGAGUGUAGUAGAACAGAGCUUUCUUUUAGAAAAUUGAGCAGAUUCCCAAAUUAUAAGAGCAGCCUCACCAGGCAGGGCUCUGGCUAGCAACAGAGGAUUGAGCAUCA
B11: chr12:122865329:122867115:-|three_prime_utr|ENSG00000139722|control|control|control (ssRNA)
RNA: GGGAGUUCUACAGUCCGACGAUCUGGAGGUCCGCUCUGUGCCAAGGGCUCUGGGGCCCUGGGCCAGCGUGUCUGUCUGAUUUUAGAACUGUAGGUCAGUGGUGAGUAGUAGGAGCCCAGGCUUUGGGCAUCAAGGCAGUUGUGCAACAGAGGAUUGAGCAUCA
B12: chr2:128192036:128192329:+|3pUTR|ENSG00000136731|msi1|FALSE|unique (ssRNA)
RNA: GGGAGUUCUACAGUCCGACGAUCAUGUCCUGGUGUCACUCAUUGCCUCUUAUCUGUCGCCAUUCUAAUAUAAGUCAGCUUAAUAGUUGACUCUGAAUAAUGCAAAACCCAGCUUGCUUCCAGAAUGGCCUAGGACCCUCCUCCCAACAGAGGAUUGAGCAUCA
B13: chr17:63423787:63423888:+|3pUTR|ENSG00000170921|msi1|total|mutant (ssRNA)
RNA: GGGAGUUCUACAGUCCGACGAUCCUAACUCAAGCCCCAGCCUCUUUCCACACUCCCUGAUACCUAAGGACUGCUUUCUCAGCCCGACCAGGGUGGGCAUCAGCGACGCCUUCUCAGCCCGACCAGGGCCGGCAUCAGCGUCCUCAACAGAGGAUUGAGCAUCA
B14: ENSG00000166086:stop:overlap|stop_codon|ENSG00000166086|stop_codon|NA|stop_codon (ssRNA)
RNA: GGGAGUUCUACAGUCCGACGAUCUCCUGCUGCUGCUUUUCAGGGAGUCAAGUCUAGUCUGCUUUCCAAGGCUGCAUUCUAAGUAGUGAAGCCUCAACUUCAUAUUUACCUAAAGCAGGACACCACACUCUUCCCCUGGCAGCCCAACAGAGGAUUGAGCAUCA
B15: chr19:3536616:3536717:+|3pUTR|ENSG00000105325|msi1|total|mutant (ssRNA)
RNA: GGGAGUUCUACAGUCCGACGAUCACCGCCGCAGGGCCAGGCGGACGGCGUGAGGUUUGUGUUGGGGCUGGUUCUGCCCAUGCCCGGGGGUGGGGGAGCUCCCAGGACAGACCAGCCUUGUUUCUCAUGUAAUGCAGUGACGCUCAACAGAGGAUUGAGCAUCA
B16: chr5:97028609:97028710:+|3pUTR|ENSG00000113441|msi1|FALSE|bound_elsewhere (ssRNA)
RNA: GGGAGUUCUACAGUCCGACGAUCUUGCAAAAGCCAAGGUAAAGCCAGGAUCGCUGCCAAGUUGUUUGCACUCUUUGGAGUUCUAGUUAGCUCAGGGCCUGACUGUAUUUUUCAUCCAUCUUUUCUGAAGUGUCUUUGGGCAGUCAACAGAGGAUUGAGCAUCA
B17: chr4:186619803:186619904:-|CDS|ENSG00000083857|msi1|FALSE|unique (ssRNA)
RNA: GGGAGUUCUACAGUCCGACGAUCAGACGGAGACCCUUUCAGCCAGUUCACUAUUAACUUCAAUACUGGAGUUAUCAAUGUCAUAGCUCCUCUGGACUUUGAGGCCCACCCGGCAUAUAAGCUGAGCAUACGCGCAACUGACUCCAACAGAGGAUUGAGCAUCA
B18: chr1:169588848:169589605:-|three_prime_utr|ENSG00000174175|control|control|control (ssRNA)
RNA: GGGAGUUCUACAGUCCGACGAUCAUAAUGCAUUUGCUGCAGGUUUCCAUAAACACCCAUGAAUCAAAGACAUGGAAUUACCUUAGAUUAGCUCUGGACCAGCCUGUUGGACCCGCUCUGGACCAACCCUGUUUCCUGAGUUUGCAACAGAGGAUUGAGCAUCA
B19: ENSG00000092201:stop:overlap|stop_codon|ENSG00000092201|stop_codon|NA|stop_codon (ssRNA)
RNA: GGGAGUUCUACAGUCCGACGAUCUUCCCCGCGUGCCAGCCUUGGUCAUGCAUAGCAGCACCUCUCGCAGUCUCUUCCCGCCCUAGAAGAGGCAACAUCCUUCCCUCCUACUCCGUGGUCACGUCUUGCUGCCCUCCCCUGCCGCAACAGAGGAUUGAGCAUCA
B20: ENSG00000077092:stop:overlap|stop_codon|ENSG00000077092|stop_codon|NA|stop_codon (ssRNA)
RNA: GGGAGUUCUACAGUCCGACGAUCUGCUGAAGGCCGCCUGCCUGGACAUCCUGACCGCCAGGACCUUGAGGAACCGACAAAAGUAGAUAAGCUACAAGAACCAUUGCUGGAAGCACUAAAAAUUUAUAUCAGAAAAAGACGACCCAACAGAGGAUUGAGCAUCA
B21: chr12:68839811:68839877:+|CDS_3pUTR|ENSG00000135679|msi1_unk|FALSE|overlapping (ssRNA)
RNA: GGGAGUUCUACAGUCCGACGAUCAUAAGCCCUGCCCAGUAUGUAGACAACCAAUUCAAAUGAUUGUGCUAACUUAUUUCCCCUAGUUGACCUGUCUAUAAGAGAAUUAUAUAUUUCUAACUAUAUAACCCUAGGAAUUUAGACCAACAGAGGAUUGAGCAUCA
B22: chr10:122937732:122937852:-|CDS|ENSG00000119965|unk|FALSE|unique (ssRNA)
RNA: GGGAGUUCUACAGUCCGACGAUCGUAAGUGACAACUCAAAUAUACCCAACUCCGAGUUGCUGCCUUUUCUCCAGAAUUUAUGUAGUCAAGUUAAUCAUCUCCAUGUGGGAAAUAAGACCGAGUGUCAGGAAAACAUCACCAAGCAACAGAGGAUUGAGCAUCA

target: MSI1 full-length (mouse, UniProt Q61474 1-362); experiment: nsRBNS (natural sequence RNA bind-n-seq); RBNS binding buffer (assumed for nsRBNS): 25 mM Tris pH 7.5, 150 mM KCl, 3 mM MgCl2, 0.01% Triton X-100, 500 ug/ml BSA, 20 U/ml SUPERase-In, 4 C; UNK is unkempt and MSI1 is Musashi-1; names of the RNAs are library labels; protein concentration not given here; high values mean tight binding
Chain of UniProt Q61474 (Q61474 whole entry): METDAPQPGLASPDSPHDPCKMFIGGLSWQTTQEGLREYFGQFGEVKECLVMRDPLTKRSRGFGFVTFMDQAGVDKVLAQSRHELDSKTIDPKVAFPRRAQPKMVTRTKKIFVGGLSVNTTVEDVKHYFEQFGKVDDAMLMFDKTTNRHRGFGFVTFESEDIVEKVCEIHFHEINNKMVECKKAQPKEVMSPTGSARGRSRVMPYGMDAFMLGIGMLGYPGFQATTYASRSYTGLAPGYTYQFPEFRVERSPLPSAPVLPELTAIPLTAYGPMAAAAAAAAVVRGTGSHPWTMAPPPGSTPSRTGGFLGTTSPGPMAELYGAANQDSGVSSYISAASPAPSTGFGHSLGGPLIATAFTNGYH

Binder	binding signal [enrichment R]
B1	0.379
B2	1.4
B3	0.455
B4	2.56
B5	0.678
B6	0.555
B7	0.551
B8	0.303
B9	0.256
B10	1.26
B11	1.64
B12	0.49
B13	0.645
B14	0.461
B15	0.471
B16	0.401
B17	0.383
B18	1.07
B19	0.9
B20	1.49
B21	3.21
B22	1.04
